# Laboratory results as given in PubChem BioAssay AID686971 (National Center for Advancing Translational Sciences (NCATS), 2013).
# The whole screen tested about 360,000 compounds, of which about 7,500 (2.1%) were called active. Inconclusive results, whose numbers are uncertain, are shown with a selection of clear calls. Calls come from the whole dose curve; as a rule, active = well fitted cell-killing curve with a large enough effect; inconclusive = small, poorly fitted or top-dose-only effect, or effect the other way, or another doubt; inactive = no such curve, though single readings can be large or run the other way. No potency is given beside an inconclusive call; the fits are too rough. Some structures have more than one record in an assay (separate samples or runs), and their calls can disagree.
# Assay: qHTS for induction of synthetic lethality in tumor cells producing 2HG: qHTS for the HT-1080-IDH1KD cell line;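 for activity, negative = toxicity: 0% = DMSO wells and -100% = cell-free medium wells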
# Conditions: HT-1080 IDH1 knockdown viability, ATP luminescence, 48 h; activity, negative = toxicity: at 46.1 µM (top of the series) unless noted
# In short: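 HT-1080-IDH1KD cells (IDH1 knocked down), 750/well in RPMI with 5% FBS, treated with compound 48 h at 37 degrees C. Viability by CellTiter-Glo luminescence, normalised to DMSO and no-cell wells; concentration-response curves classed.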
# Potency is the fitted concentration of half-maximal effect; tags give direction and shape of the fitted curve.
SMILES,Potency,"activity, negative = toxicity"
COc1ccccc1/C=N/NC(=O)c1nnn(-c2nonc2N)c1-c1cccs1,inactive,
Cc1sc(NC(=O)c2sc3nc4c(C)cccc4cc3c2N)c(C#N)c1C,"inconclusive [cytotoxic, single point]",
O=S(=O)(Cc1cc(Sc2ccc(Cl)cc2)nc(-c2ccccc2)n1)c1ccccc1,inactive,
CC(C(=O)OCC(=O)c1ccc([N+](=O)[O-])cc1)N1C(=O)C2C3C=CC(C3)C2C1=O (stereo not drawn),inactive,
N#Cc1ccc(/C=C\c2nccc3c2[nH]c2ccccc23)cc1,active: 14.6 µM,
CC(C)C[C@H](NC(=O)c1[nH]cnc1C(=O)N[C@@H](C)C(=O)OC(C)(C)C)C(=O)OC(C)(C)C,"inconclusive [cytotoxic, single point]",
Cc1ccc(O)c(Nc2c3ccccc3nc3ccccc23)c1,active: 16.4 µM,
COc1ccc(CCC(C)NC2C3CC4CC(C3)CC2C4)cc1 (stereo not drawn),"inconclusive [cytotoxic, single point]",
CCCCCCCCN1C(=O)[C@H](CC(=O)NCCc2ccccc2OC)C[C@@]2(C(=O)OCC)CCC=C12,"inconclusive [cytotoxic, single point]",
CCOC(=O)[C@]12CCCC=C1N(CCC1=CCCCC1)C(=O)[C@H](CC(=O)NCC1CCCCC1)C2,active: 23.1 µM,
COc1ccc(C(C)=O)cc1COc1ccc(-n2cnnn2)cc1,inactive,
O=C(CSCc1c(F)cccc1Cl)Nc1ccccc1C(=O)N1CCOCC1,inactive,
COc1ccccc1CCn1cnc(Cc2ccccc2)c1C(C)C,"inconclusive [cytotoxic, single point]",
CN1CCN(c2ncnc3c2ncn3[C@H]2CN(Cc3cccs3)C[C@@H](CO)O2)CC1,"inconclusive [rising, single point]",
CN1CCc2c(c3ccccc3n2Cc2ccccc2)C1,active: 16.4 µM,
CCOC(=O)c1ccc(NC(=O)c2nc[nH]c2C(=O)N[C@H](C)c2ccccc2)cc1,,inconclusive: -30% [cytotoxic]
Fc1ccc(C(c2ccc(F)cc2)N2CCN(C/C=C/c3ccccc3)CC2)cc1,"inconclusive [cytotoxic, single point]",
O=C(NCC(c1ccco1)N1CCCCC1)c1cccnc1 (stereo not drawn),inactive,
COc1cc(OC)cc(-c2c(-c3cccs3)c3cc(-c4cnc(N)nc4)ccc3n2C)c1,"inconclusive [cytotoxic, single point]",
Nc1ccccc1C(=O)NNC1=C(C(=O)C(F)(F)F)CCC1,"inconclusive [cytotoxic, partial curve]",
COc1ccc(/C=N/NC(N)=S)cc1,inactive,
O=C(OCc1cccc(C(F)(F)F)c1)c1ccc[nH]c1=O,inactive,
Nc1c(C(=O)CSc2nc3ccccc3o2)c(=O)[nH]c(=O)n1C1CC1,"inconclusive [cytotoxic, partial curve]",
COc1ccc(NC(=O)CCc2ccccc2)cc1S(=O)(=O)N1CCOCC1,inactive,

SMILES,Potency,"activity, negative = toxicity"
O=[N+]([O-])c1ccc(-c2ccc(S(=O)(=O)NCCN3CCCC3)cc2)cc1,"inconclusive [cytotoxic, partial curve]",
COCCn1c(=S)[nH]c2cc(C(=O)NCCCN3CCOCC3)ccc2c1=O,inactive,
COc1ccc(OC)c(Nc2nc(N)nc(CCl)n2)c1,active: 16.4 µM,
O=C(Nc1ccc(Cl)c(Cl)c1)c1cccc(S(=O)(=O)NCc2cccnc2)c1,active: 23.1 µM,
O=C(CN1CCN(S(=O)(=O)c2ccc(Br)cc2)CC1)N/N=C/c1ccc(Br)s1,"inconclusive [cytotoxic, single point]",
CCc1ccccc1Nc1nc2ccccc2[nH]1,"inconclusive [cytotoxic, single point]",
CC(C)C(=O)Nc1cccc(NC(=S)NC(=O)c2ccc(Cl)cc2)c1,"inconclusive [cytotoxic, single point]",
O=c1cc(N2CCCCC2)c(-c2ccccc2)nn1Cc1ccccc1Cl,"inconclusive [cytotoxic, single point]",
Cc1nn(C)c(Oc2ccccc2)c1CCNS(=O)(=O)c1ccc(Cl)cc1,"inconclusive [cytotoxic, single point]",
COc1cc2nc(=S)n3[nH]c(CCn4nc(C)cc4C)nc3c2cc1OC,"inconclusive [cytotoxic, partial curve, poor fit]",
CCN1CCN(c2ccc(NC(=O)c3cccc(F)c3)cc2Cl)CC1,"inconclusive [cytotoxic, partial curve]",
Cc1cc(F)ccc1C(O)c1ncc(-c2ccc(Oc3ccccc3)cc2)[nH]1 (stereo not drawn),"inconclusive [cytotoxic, partial curve]",
Cc1ccc(-c2c3c(nc4sc(C(N)=O)c(N)c24)CCCC3)o1,inactive,
Clc1ccc(-n2ncc3c(NCC4CCCO4)ncnc32)cc1 (stereo not drawn),"inconclusive [cytotoxic, single point]",
Cc1cc(N)ccc1NC(=O)CN1CCCC1,inactive,
N#CCC(=O)NNc1c([N+](=O)[O-])cc(C(F)(F)F)cc1[N+](=O)[O-],inactive,
Cc1ccc(NC(=O)C2(C)CCN2C(=O)Cc2ccc(-c3ccccc3)cc2)cc1 (stereo not drawn),"inconclusive [cytotoxic, single point]",
Cc1oc(=O)c(NC(=O)c2ccccc2)cc1C(=O)c1ccccc1,inactive,
COc1ccc(C(=O)NC2CCc3ccccc32)cc1OC1CCN(C(C)=O)CC1 (stereo not drawn),inactive,
COc1ccc(NC(=O)/C=C/c2ccc(S(=O)(=O)N3CCOCC3)cc2)cc1,inactive,
CCCc1cc(-c2nc(-c3ccc(C)cc3)cs2)ccn1,"inconclusive [cytotoxic, single point]",
c1cncc(-c2cn(C[C@H]3CC[C@@H]([C@@H]4CC[C@H](Cn5cc(-c6cccnc6)nn5)O4)O3)nn2)c1,inactive,
Cc1nn(-c2ccccc2)c(C)c1C(=O)OCC(=O)Nc1ccccc1C(F)(F)F,inactive,
Cc1ccc(-c2cc(C(=O)OCC(=O)N(C)C3CCS(=O)(=O)C3)c3ccccc3n2)c(C)c1 (stereo not drawn),"inconclusive [cytotoxic, single point]",
